{
  "source": "patent CN114805562A",
  "about": "(GUANGDONG FAPON PHARMACEUTICAL CO LTD, dated 2022)",
  "binders": {"B1": {"name": "驼源性纳米抗体 R1382 (RX011 VHH linked directly to hIgG1-Fc) (Fc fusion)", "chain": "QVQLVESGGGPVQAGGSLRLSCTCSRCTFNWDGMGWFRQAPGKEREFVATISWSGQEPAYADSVKGRFTISRDKPKNTVYLQMTSLKSEDTAVYYCAAAQYTGASYSILRDQVGYDYWGQGTRVTVSA[letters of human IgG1 Fc with changes omitted]", "notes": "also called RX011-hIgG1-Fc; 对照组"}},
  "key": {"[1]": {"molecular_target": "T1, Delta变异株新型冠状病毒SARS-COV-2 RBD蛋白 (SARS-COV-2 (Delta变异株))", "T1 construct": "domain: RBD; also called Delta variant SARS-CoV-2 RBD", "experiment": "competition ELISA: coated Delta RBD, antibody titrated, then ACE2"}, "[2]": {"molecular_target": "T2, Omicron变异株新型冠状病毒SARS-COV-2 RBD蛋白 (SARS-COV-2 (Omicron变异株))", "T2 construct": "domain: RBD; also called Omicron variant SARS-CoV-2 RBD", "experiment": "competition ELISA: coated Omicron RBD, antibody titrated, then ACE2"}},
  "data": [
    {"binder": "B1", "values": [
      {"measurement": "IC50", "setting": "[1]", "result": 13.7, "unit": "pM"},
      {"measurement": "IC50", "setting": "[2]", "result": 170, "unit": "pM"}
    ]}
  ]
}
